# This is one part of the list. Shown are side measurements of this screen, not its main read-out; they come without a call. Compounds called inactive in the main read-out are mostly missing here. Words in brackets tell the shape of the fitted curve; partial curves, single points and poor fits give uncertain potencies.
# Experiment: qHTS Assay for Lipid Storage Modulators (AID 1519)
# Details: Drosophila S3 cells, BODIPY lipid droplet/cell ratio, laser cytometry, cells loaded with oleic acid
# Method in brief: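 Cells seeded at 5,000 per well were treated with compounds over a concentration series and loaded with oleic acid (400 uM, as added). Lipid droplet fluorescence (488 nm excitation, 500-530 nm channel) was read by laser-scanning cytometry and normalized to 20 uM Triacsin C.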
# [1] = measured here: cell count channel max response
# [2] = measured here: cell number channel AC50
# [3] = measured here: lipid (BODIPY) channel AC50
# [4] = measured here: lipid channel max response
# Tags tell the direction and shape of the fitted curve.
Compound,max response [1] [%],AC50 [2],AC50 [3],max response [4] [%]
CCOC(=O)C1=C(N)Oc2ccc(Br)cc2[C@@H]1[C@@H](C#N)C(=O)OCC,84.9,"7.08 µM [rising, full curve]","7.94 µM [rising, partial curve]",111
Cc1nc2cnc(Oc3ccccc3)nc2n(CCc2ccccc2)c1=O,17.9,"0.0398 µM [rising, partial curve]","0.0398 µM [rising, full curve]",24.7
CN(C)c1ncc2nc(-c3ccc(F)cc3)c(=O)n(CCC#N)c2n1,21.3,"0.178 µM [rising, partial curve]","0.0224 µM [rising, full curve, poor fit]",30.8
CN1Cc2c(C(=O)OC(C)(C)C)ncn2-c2ccsc2C1=O,67.3,"31.6 µM [rising, partial curve, poor fit]","31.6 µM [rising, partial curve]",88
CCNc1ncc2nc(-c3ccc(OC)cc3)c(=O)n(CCC#N)c2n1,38.2,"3.16 µM [rising, partial curve, poor fit]","1.26 µM [rising, full curve, poor fit]",44.6
COc1ccc(C(=O)N2CCC[C@@]3(CCN(Cc4nccs4)C3)C2)cc1,15.5,"6.31 µM [rising, partial curve, poor fit]","1.78 µM [rising, partial curve, poor fit]",20.1
Cc1ccc(=O)n(-c2ccccc2)c1,-30.5,"3.16 µM [falling, full curve, poor fit]","3.16 µM [falling, full curve, poor fit]",-30.8
COc1ccc(Oc2ncc3nc(-c4cc(F)cc(F)c4)c(=O)n(CCC#N)c3n2)cc1,4.49,"0.00562 µM [rising, full curve, poor fit]","0.00562 µM [rising, full curve, poor fit]",8.61
COc1cccc(Cn2c(=O)c(-c3cccc(F)c3)nc3cncnc32)c1,27.7,"0.355 µM [rising, full curve]","0.316 µM [rising, full curve]",40
Cc1nc2cnc(N(C)C)nc2n(CCc2ccccc2)c1=O,19.2,"1.78 µM [rising, full curve, poor fit]","1.58 µM [rising, full curve, poor fit]",26.6
O=c1c(-c2ccccc2)nc2cnc(N3CCOCC3)nc2n1-c1ccccc1,20.5,"0.0355 µM [rising, full curve, poor fit]","0.282 µM [rising, full curve, poor fit]",18.4
NCCCCCCNS(=O)(=O)c1cccc2ccccc12,75.6,"12.6 µM [rising, partial curve]","14.1 µM [rising, partial curve]",106
c1nc(NCCN2CCOCC2)c2cc(-c3ccoc3)ccc2n1,37.3,"20 µM [rising, partial curve, poor fit]","17.8 µM [rising, partial curve, poor fit]",42.5
Cc1ccccc1-c1nc(N2CCN(C)CC2)c2ccccc2n1,48.7,"1.12 µM [rising, full curve, poor fit]","11.2 µM [rising, partial curve, poor fit]",57.2
Cc1ccccc1-c1ccc2ncnc(N3CCOCC3)c2c1,-4.37,"1.58 µM [rising, partial curve]","1.58 µM [rising, full curve]",5.98
N#Cc1cccc(-c2ccc3ncnc(N4CCNCC4)c3c2)c1,29.6,"0.1 µM [rising, full curve, poor fit]","0.224 µM [rising, full curve]",39.6
CCc1ccc2c(-c3cccc(Cl)c3)nc(=O)n(CC)c2n1,118,"0.224 µM [rising, full curve]","0.112 µM [rising, full curve]",160
Cn1cccc1C(=O)N1CCC2(CC1)CCN(c1ccccn1)CC2,21.4,"0.141 µM [rising, partial curve, poor fit]","0.141 µM [rising, full curve, poor fit]",29.5
CC(=O)N1CCC[C@@]2(CCN(c3ccccc3)C2)C1,27.1,"0.141 µM [rising, full curve]","0.1 µM [rising, full curve]",11.7
Cc1cnc(CNc2cc(-c3ccc(N(C)C)cc3)ncn2)cn1,27.7,"0.562 µM [rising, full curve, poor fit]","0.562 µM [rising, full curve, poor fit]",29.7

Compound,max response [1] [%],AC50 [2],AC50 [3],max response [4] [%]
CCNc1ncc2nc(CCc3ccccc3)c(=O)n(C3CC3)c2n1,16.1,"0.891 µM [rising, full curve]","1 µM [rising, full curve]",17.9
O=c1c(O)c(-c2ccc(O)c(O)c2)oc2c(OC[C@@H]3O[C@@H](O)[C@@H](O)[C@H](O)[C@H]3O)c(O)cc(O)c12,63.1,"31.6 µM [rising, partial curve, poor fit]","31.6 µM [rising, partial curve, poor fit]",84.1
O=c1cnc2cnc(N3CCNCC3)nc2n1CCc1ccccc1,39.2,"0.00501 µM [rising, full curve, poor fit]","3.55 µM [rising, full curve, poor fit]",49.5
COc1ccc(CNc2ncncc2-c2cccc(NS(C)(=O)=O)c2)c(OC)c1,43.1,"6.31 µM [rising, partial curve, poor fit]","7.08 µM [rising, partial curve, poor fit]",52.9
CCCCCCCCCCCCC[N+](C)(C)Cc1ccccc1,-41.4,"14.1 µM [falling, partial curve, poor fit]","7.94 µM [falling, full curve]",-86
COc1ccc(C(=O)N2CCC3(CCCN(c4ncccn4)C3)CC2)cc1,18.6,"2.51 µM [rising, partial curve]","2 µM [rising, partial curve]",23.9
Cc1cnc(CNc2ncncc2-c2ccc3c(c2)OCO3)cn1,43.4,"0.2 µM [rising, full curve, poor fit]","0.178 µM [rising, full curve, poor fit]",54.8
COc1cccc(Cn2c(=O)c(CCc3ccccc3)nc3cncnc32)c1,34.5,"1.78 µM [rising, partial curve]","1.26 µM [rising, partial curve]",43.8
CNc1ncncc1-c1ccc(C(=O)N(C)C)cc1,33.5,"15.8 µM [rising, partial curve, poor fit]","15.8 µM [rising, partial curve, poor fit]",47.7
CN(Cc1ccco1)c1ncncc1-c1cccc(NS(C)(=O)=O)c1,38.1,"1.41 µM [rising, full curve]","1.12 µM [rising, full curve]",46.8
N#Cc1cccc(-c2cncnc2NCc2ccccc2)c1,26.3,"6.31 µM [rising, partial curve, poor fit]","5.62 µM [rising, partial curve]",31.2
O=C(Cc1ccccc1)Nc1nc2ccc(Cl)cc2c2nc(-c3ccco3)nn12,70.3,"0.708 µM [rising, full curve]","0.794 µM [rising, full curve]",87.9
COc1ncc2nc(-c3cc(F)cc(F)c3)c(=O)n(CCc3ccccc3)c2n1,-8.15,"4.47 µM [rising, partial curve, poor fit]","1.26 µM [rising, partial curve, poor fit]",-3.32
COc1ccccc1N1CCN(CCn2c(=O)[nH]c3c([nH]c4ccccc43)c2=O)CC1,43.4,"0.891 µM [rising, full curve]","0.891 µM [rising, full curve]",59.1
COc1ccc(NC(=O)N2CC3(CCN(S(=O)(=O)c4ccccc4)CC3)C2)cc1,84.5,"39.8 µM [rising, single point]","22.4 µM [falling, single point]",-32.3
C[C@H]1C=C2C=C[C@H](C)[C@H](CC[C@@H]3C[C@@H](O)CC(=O)O3)[C@H]2[C@@H](OC(=O)[C@@H](C)CCO)C1,48.8,"39.8 µM [rising, partial curve, poor fit]","39.8 µM [rising, single point]",39
Nc1cc(-c2ccncc2)c[nH]c1=O,31,"3.98 µM [rising, partial curve, poor fit]","25.1 µM [rising, partial curve, poor fit]",48.2
O=c1c(-c2cccs2)nc2cnc(N3CCOCC3)nc2n1CCc1ccccc1,46.9,"2.51 µM [rising, partial curve]","0.891 µM [rising, full curve]",41.4
COc1ccc(Oc2ncc3nc(-c4cccs4)c(=O)n(-c4ccccc4)c3n2)cc1,1.04,"0.891 µM [rising, full curve]","1 µM [rising, full curve, poor fit]",1.02

# Reference: PubChem BioAssay (NCATS)
